{"source": "a collection of fitness landscapes (doi:10.1016/j.celrep.2020.107928)", "parents": {"B1": {"name": "Caulobacter ParB omega fusion; a variant is named by its letters at X, in order, B8GW30 (parent)", "chain": "MESVVVGEPGMSEGRRGLGRGLSALLGEVDAAPAQAPGEQLGGSREAPIEILQRNPDQPRRTFREEDLEDLSNSIREKGVLQPILVRPSPDTAGEYQIVAGERAWRAAQRAGLKTVPIMVRELDDLAVLEIGIIENVQRADLNVLEEALSYKVLMEKFERTQENIAQTIGKSXSHVANXMRLLXLPDEVQSYLVSGELTAXHARAIAAAADPVALAKQIIEGGLSVRETEALARKAPNLSAGKSKGGRPPRVKDTDTQALESDLSSVLGLDVSIDHRGSTGTLTITYATLEQLDDLCNRLTRGI"}}, "note": "Whole data set: some 81,000 sequences, median “one-hybrid fitness for binding parS DNA” near -0.17, cut for the highest 2% near 0.51. Some of the results follow."}
{"variants_of": "B1", "test": "one-hybrid fitness for binding parS DNA (scaled: cognate 1, non-cognate 0); higher = stronger binding", "settings": "with parS DNA site", "outline": "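In E. coli USO, a HIS3 reporter with its site placed 19 bp from the promoter was used to select Caulobacter ParB variants randomised at four specificity codons. Growth lasted 48 hours at 37°C on histidine-free M9 containing 0.1 mM IPTG and 5 mM 3-AT. Fitness was taken as the log change in variant-to-wild-type read ratio from Illumina sequencing of pre- and post-selection plasmids, rescaled between the non-cognate and cognate sites.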"}
{"variant": "THDT", "one-hybrid fitness for binding parS DNA": "≤ 0.2"}
{"variant": "YAFT", "one-hybrid fitness for binding parS DNA": "≤ 0.2"}
{"variant": "IRYN", "one-hybrid fitness for binding parS DNA": "≤ 0.2"}
{"variant": "TAWV", "one-hybrid fitness for binding parS DNA": "≤ 0.2"}
{"variant": "IKST", "one-hybrid fitness for binding parS DNA": "≤ 0.2"}
{"variant": "VHFP", "one-hybrid fitness for binding parS DNA": "≤ 0.2"}
{"variant": "NQYI", "one-hybrid fitness for binding parS DNA": "≤ 0.2"}
{"variant": "FKRT", "one-hybrid fitness for binding parS DNA": "≤ 0.2"}
{"variant": "KAGS", "one-hybrid fitness for binding parS DNA": "≤ 0.2"}
{"variant": "ARGE", "one-hybrid fitness for binding parS DNA": "≤ 0.2"}
{"variant": "NVSY", "one-hybrid fitness for binding parS DNA": "≤ 0.2"}
{"variant": "PFSG", "one-hybrid fitness for binding parS DNA": "≤ 0.2"}
{"variant": "HHTF", "one-hybrid fitness for binding parS DNA": "≤ 0.2"}
{"variant": "VFAI", "one-hybrid fitness for binding parS DNA": "≤ 0.2"}
{"variant": "WVGS", "one-hybrid fitness for binding parS DNA": "≤ 0.2"}
{"variant": "WRKV", "one-hybrid fitness for binding parS DNA": "≤ 0.2"}
{"variant": "VRAS", "one-hybrid fitness for binding parS DNA": "≤ 0.2"}
{"variant": "NQSC", "one-hybrid fitness for binding parS DNA": "≤ 0.2"}
{"variant": "AMNA", "one-hybrid fitness for binding parS DNA": "≤ 0.2"}
{"variant": "HRAY", "one-hybrid fitness for binding parS DNA": "≤ 0.2"}
{"variant": "QHLF", "one-hybrid fitness for binding parS DNA": "≤ 0.2"}
{"variant": "MFMS", "one-hybrid fitness for binding parS DNA": "≤ 0.2"}
{"variant": "EKLS", "one-hybrid fitness for binding parS DNA": "≤ 0.2"}
{"variant": "QHSR", "one-hybrid fitness for binding parS DNA": "≤ 0.2"}
{"variant": "MRCM", "one-hybrid fitness for binding parS DNA": "≤ 0.2"}
{"variant": "DACR", "one-hybrid fitness for binding parS DNA": "≤ 0.2"}
{"variant": "VTDG", "one-hybrid fitness for binding parS DNA": "≤ 0.2"}
{"variant": "QKYW", "one-hybrid fitness for binding parS DNA": "≤ 0.2"}
{"variant": "HIHN", "one-hybrid fitness for binding parS DNA": "≤ 0.2"}
{"variant": "NTGS", "one-hybrid fitness for binding parS DNA": "≤ 0.2"}
{"variant": "ERLR", "one-hybrid fitness for binding parS DNA": "≤ 0.2"}
{"variant": "RQDG", "one-hybrid fitness for binding parS DNA": 0.93}
{"variant": "RNYY", "one-hybrid fitness for binding parS DNA": 0.297}
{"variant": "MKMC", "one-hybrid fitness for binding parS DNA": "≤ 0.2"}
{"variant": "LEDT", "one-hybrid fitness for binding parS DNA": "≤ 0.2"}
{"variant": "IRVC", "one-hybrid fitness for binding parS DNA": "≤ 0.2"}
{"variant": "ILLS", "one-hybrid fitness for binding parS DNA": "≤ 0.2"}
{"variant": "GQVI", "one-hybrid fitness for binding parS DNA": 0.347}
{"variant": "PRCC", "one-hybrid fitness for binding parS DNA": "≤ 0.2"}
{"variant": "EETG", "one-hybrid fitness for binding parS DNA": "≤ 0.2"}
{"variant": "TAVI", "one-hybrid fitness for binding parS DNA": "≤ 0.2"}
{"variant": "KASW", "one-hybrid fitness for binding parS DNA": "≤ 0.2"}
{"variant": "WNEY", "one-hybrid fitness for binding parS DNA": "≤ 0.2"}
{"variant": "TEAG", "one-hybrid fitness for binding parS DNA": "≤ 0.2"}
{"variant": "ERRT", "one-hybrid fitness for binding parS DNA": "≤ 0.2"}
{"variant": "VCLS", "one-hybrid fitness for binding parS DNA": "≤ 0.2"}
{"variant": "MPQQ", "one-hybrid fitness for binding parS DNA": "≤ 0.2"}
{"variant": "HHEY", "one-hybrid fitness for binding parS DNA": "≤ 0.2"}
{"variant": "PNDC", "one-hybrid fitness for binding parS DNA": "≤ 0.2"}
{"variant": "KTRR", "one-hybrid fitness for binding parS DNA": "≤ 0.2"}
{"variant": "NRSQ", "one-hybrid fitness for binding parS DNA": "≤ 0.2"}
{"variant": "GAEC", "one-hybrid fitness for binding parS DNA": "≤ 0.2"}
{"variant": "FRRR", "one-hybrid fitness for binding parS DNA": "≤ 0.2"}
{"variant": "INRR", "one-hybrid fitness for binding parS DNA": "≤ 0.2"}
{"variant": "HVPS", "one-hybrid fitness for binding parS DNA": "≤ 0.2"}
{"variant": "HCQT", "one-hybrid fitness for binding parS DNA": "≤ 0.2"}
{"variant": "CTYY", "one-hybrid fitness for binding parS DNA": "≤ 0.2"}
{"variant": "NNIT", "one-hybrid fitness for binding parS DNA": "≤ 0.2"}
{"variant": "HQRI", "one-hybrid fitness for binding parS DNA": "≤ 0.2"}
{"variant": "RETE", "one-hybrid fitness for binding parS DNA": "≤ 0.2"}
{"variant": "QVKP", "one-hybrid fitness for binding parS DNA": "≤ 0.2"}
{"variant": "RKGT", "one-hybrid fitness for binding parS DNA": 0.764}
{"variant": "KMDE", "one-hybrid fitness for binding parS DNA": "≤ 0.2"}
{"variant": "WYKR", "one-hybrid fitness for binding parS DNA": "≤ 0.2"}
{"variant": "RFHQ", "one-hybrid fitness for binding parS DNA": "≤ 0.2"}
{"variant": "AKTN", "one-hybrid fitness for binding parS DNA": "≤ 0.2"}
{"variant": "KHFS", "one-hybrid fitness for binding parS DNA": "≤ 0.2"}
{"variant": "RDGR", "one-hybrid fitness for binding parS DNA": "≤ 0.2"}
{"variant": "SYAW", "one-hybrid fitness for binding parS DNA": "≤ 0.2"}
{"variant": "AYYG", "one-hybrid fitness for binding parS DNA": "≤ 0.2"}
{"variant": "QKPC", "one-hybrid fitness for binding parS DNA": "≤ 0.2"}
{"variant": "AQDI", "one-hybrid fitness for binding parS DNA": "≤ 0.2"}
{"variant": "YSMM", "one-hybrid fitness for binding parS DNA": "≤ 0.2"}
{"variant": "GKHC", "one-hybrid fitness for binding parS DNA": "≤ 0.2"}
{"variant": "QDSE", "one-hybrid fitness for binding parS DNA": "≤ 0.2"}
{"variant": "RMFN", "one-hybrid fitness for binding parS DNA": 0.459}
{"variant": "VMFG", "one-hybrid fitness for binding parS DNA": "≤ 0.2"}
{"variant": "KFKG", "one-hybrid fitness for binding parS DNA": "≤ 0.2"}
{"variant": "QGDY", "one-hybrid fitness for binding parS DNA": "≤ 0.2"}
{"variant": "RHDW", "one-hybrid fitness for binding parS DNA": "≤ 0.2"}
{"variant": "SLPY", "one-hybrid fitness for binding parS DNA": "≤ 0.2"}
{"variant": "EAAE", "one-hybrid fitness for binding parS DNA": "≤ 0.2"}
{"variant": "YHPR", "one-hybrid fitness for binding parS DNA": "≤ 0.2"}
{"variant": "ITFA", "one-hybrid fitness for binding parS DNA": "≤ 0.2"}
{"variant": "NQDR", "one-hybrid fitness for binding parS DNA": "≤ 0.2"}
{"variant": "GDTC", "one-hybrid fitness for binding parS DNA": "≤ 0.2"}
{"variant": "QCHF", "one-hybrid fitness for binding parS DNA": "≤ 0.2"}
{"variant": "TPVE", "one-hybrid fitness for binding parS DNA": "≤ 0.2"}
{"variant": "PSLI", "one-hybrid fitness for binding parS DNA": "≤ 0.2"}
{"variant": "EPML", "one-hybrid fitness for binding parS DNA": "≤ 0.2"}
{"variant": "QGLG", "one-hybrid fitness for binding parS DNA": "≤ 0.2"}
{"variant": "YVLR", "one-hybrid fitness for binding parS DNA": "≤ 0.2"}
{"variant": "IKDF", "one-hybrid fitness for binding parS DNA": "≤ 0.2"}
{"variant": "LDKL", "one-hybrid fitness for binding parS DNA": "≤ 0.2"}
{"variant": "LIVY", "one-hybrid fitness for binding parS DNA": "≤ 0.2"}
{"variant": "DMPL", "one-hybrid fitness for binding parS DNA": "≤ 0.2"}
{"variant": "QQVA", "one-hybrid fitness for binding parS DNA": "≤ 0.2"}
